Measurements as given in PubChem BioAssay AID1745853 (National Center for Advancing Translational Sciences (NCATS), 2022).
The other results are listed elsewhere or left out. The main result of the screen is listed elsewhere. These columns were measured beside it and carry no call.

Experiments:
Assay in all cases: Primary Screen for Target Class Profiling of Small Molecule Inhibitors of Methyltransferases
[1] = molecular target: Guanidinoacetate N-methyltransferase (Homo sapiens) (UniProt Q14353); settings: purified enzyme, MTase-Glo SAH luminescence; measured here: GAMT inhibition; at 40 µM; stronger effect = lower value
In short: (§1)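 Each enzyme was reacted with SAM and its substrate, with compounds tested once at 40 uM; SAH formed was read by MTase-Glo luminescence.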

[2] = molecular target: Nicotinamide N-methyltransferase (Homo sapiens) (UniProt P40261); settings: purified enzyme, MTase-Glo SAH luminescence; measured here: NNMT inhibition; at 40 µM; stronger effect = lower value
In short: as §1

[3] = molecular target: Phenylethanolamine N-methyltransferase (Homo sapiens) (UniProt P11086); settings: purified enzyme, MTase-Glo SAH luminescence; measured here: PNMT inhibition; at 40 µM; stronger effect = lower value
In short: as §1

[4] = molecular target: Glycine N-methyltransferase (Homo sapiens) (UniProt Q14749); settings: purified enzyme, MTase-Glo SAH luminescence; measured here: GNMT inhibition; at 40 µM; stronger effect = lower value
In short: as §1

[5] = molecular target: Histamine N-methyltransferase (Homo sapiens) (UniProt P50135); settings: purified enzyme, MTase-Glo SAH luminescence; measured here: HNMT inhibition; at 40 µM; stronger effect = lower value
In short: as §1
% is set by controls: 0 for no effect and ±100 for the full control effect.

| SMILES | activity change, negative = inhibition [1] | activity change, negative = inhibition [2] | activity change, negative = inhibition [3] | activity change, negative = inhibition [4] | activity change, negative = inhibition [5] |
| --- | --- | --- | --- | --- | --- |
| CCn1c(-c2nonc2N)nc2cncc(C(=O)N3CC[C@H](N)C3)c21 | -9.24% | -12.5% | 1.68% | – | – |
| CCc1ccc(CNC(=O)c2cc3n(n2)CC(C)(C(=O)NCc2ccccc2)N(C)C3=O)cc1 (stereo not drawn) | 0% | 3.15% | 1.32% | 0.788% | 4.07% |
| CC(C)C1c2cccn2CCN1C(=O)Nc1ccccc1F (stereo not drawn) | 1.1% | 6.3% | 8.78% | 15.6% | 8.3% |
| Cc1ccc(C(=O)CSc2nnc3n(C)c(=O)c4ccc(C(=O)NC5CCCCC5)cc4n23)cc1 | 0.293% | 9.26% | 6.59% | 3.09% | 4.46% |
| COc1ccc(CN2CCC(N3CCOC3=O)CC2)cc1 | -8.69% | -19.3% | -3.61% | -7.09% | -3.88% |
| O=C(c1ccc(Br)o1)N1CCC(c2n[nH]c(=O)n2Cc2ccc(F)cc2)CC1 | 1.48% | -2.53% | 2.19% | 1.4% | 1.44% |
| CO[C@@H](Cc1ccc(OCCc2nc(-c3ccccc3)oc2C)c2ccsc12)C(=O)O | 7.52% | -23.6% | 7.43% | -0.613% | 11.4% |
| Cc1ccc(C#N)c(-c2cc(NCc3cccnc3)nc3[nH]ccc23)n1 | -5.31% | -7.97% | -8.6% | -9.18% | -4.3% |
| NCc1cccc(-c2cncnc2)c1 | -0.569% | 0.192% | -2.5% | -2.45% | -15.1% |
| COCC(=O)NC[C@H]1CCN(Cc2ccc(Br)o2)C[C@H]1N(C)C | -1.85% | -8.14% | -9.57% | -2.55% | -0.299% |
| CC1(C(=O)NC2CCCC2)Cn2c(ccc2-c2ccco2)C(=O)N1Cc1ccccc1 (stereo not drawn) | 0% | -3.02% | -2.25% | -4% | 0.458% |
| CC(=O)Nc1c2n(c3ccccc13)CC(C)(C(=O)NC1CCCCC1)N(Cc1ccc(F)cc1)C2=O (stereo not drawn) | -3.05% | -4.42% | -1.75% | -8.2% | -1.64% |
| CCCn1c(=O)c2ccc(C(=O)NCC(C)C)cc2n2c(=O)n(CC(=O)c3ccc(F)cc3F)nc12 | 1.02% | 0.078% | 5.56% | 2.97% | 6.07% |
| O=C1CO[C@H]2CCN(Cc3ccc4c(c3)CCO4)CC[C@@H]2N1Cc1ccccc1 | -11.1% | -32.9% | -30.5% | -10.8% | -21.7% |
| COc1ccc(-c2nnc3n(Cc4ccccc4)c(=O)c4ccccc4n23)cc1OC | 4.97% | -2.92% | -4.28% | -8.54% | -3.23% |
| C=C1CCC[C@]2(C)CC[C@@H](C(=C)C(=O)O)[C@H](O)[C@@H]12 | -4.25% | -15% | 1.85% | -1.03% | -0.198% |
| CNCc1ccc(-c2[nH]c3cc(F)cc4c3c2CCNC4=O)cc1 | -6.13% | -38.7% | -22% | -11.7% | -54.5% |
| O=C(C1CC2(CCNCC2)CN1)N1CCC(c2nc3ccccc3[nH]2)CC1 (stereo not drawn) | 0.745% | 3.05% | -3.19% | -1.08% | -0.563% |
| O=C1CCN(S(=O)(=O)c2ccccc2)CCCN(C(=O)c2c[nH]c3ccccc23)CCN1 | -6.4% | -15.8% | -7.4% | -8.31% | -3.28% |
